# The list shows a part of the results. Read counts after selection give these values, which scatter widely. Each score is taken over the longer molecules that contain the sequence shown.
# System: IMP3 KH1-4
# Test: 6-mer SELEX enrichment z-score vs GST control; IMP3 is the RNA-binding protein IGF2BP3; higher = more enriched by binding
# Conditions: construct: KH1-4 (164-579); SELEX round: R4
# Experimental: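 SELEX-seq with GST-tagged IMP3 KH1-4 (Pro164-Lys579) and an N40 RNA pool, round 4. 6-mer z-score of sequence-tag enrichment normalised to the corresponding GST SELEX round; RNA k-mers written as DNA (T for U).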
# IMP3 KH1-4, sequence (chain, as listed by the source): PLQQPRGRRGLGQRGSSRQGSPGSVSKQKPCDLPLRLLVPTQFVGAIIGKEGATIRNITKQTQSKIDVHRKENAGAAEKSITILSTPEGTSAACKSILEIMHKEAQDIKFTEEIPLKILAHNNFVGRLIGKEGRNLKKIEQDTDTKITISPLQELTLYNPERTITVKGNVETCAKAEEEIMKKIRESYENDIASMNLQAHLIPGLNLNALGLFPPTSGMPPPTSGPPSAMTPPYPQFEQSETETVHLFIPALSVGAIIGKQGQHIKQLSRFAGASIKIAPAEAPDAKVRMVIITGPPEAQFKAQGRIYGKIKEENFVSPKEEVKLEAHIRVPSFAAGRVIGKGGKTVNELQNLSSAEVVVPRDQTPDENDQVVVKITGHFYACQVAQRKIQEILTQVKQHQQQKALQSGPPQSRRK
row,Sequence,6-mer SELEX enrichment z-score
1,TCTGGA,-0.161
2,CTCTGG,-0.409
3,GGTCTT,-0.04
4,TTCTGC,0.229
5,TAGTAT,0.235
6,GTCACA,0.334
7,GACTAA,-0.119
8,ATAATT,1.86
9,TATCAA,0.504
10,GCGACT,-0.675
11,CTTATC,0.365
12,GTATGG,0.42
13,TAAAAA,-0.68
14,TGAGGC,0.549
15,ACGCTT,-0.02
16,CCGGGC,-1.69
17,TTTCAT,1.43
18,TCACGC,-0.021
19,TTCCGT,0.532
20,GCGATC,-0.664

row,Sequence,6-mer SELEX enrichment z-score
1,GATATT,0.987
2,GCCCTT,-0.24
3,GGTGCG,0.165
4,ATGACA,1.92
5,TGCGCT,-0.092
6,CCTGTG,-0.485
7,TAATGA,1.01
8,CGGGGT,0.045
9,AGTGGG,0.43
10,TATTAA,1.46
11,ACTTCA,0.73
12,CGAATT,-0.13
13,CACATT,2.47
14,CGTCTG,-0.47
15,GTCGAC,-0.402
16,TCGCGT,-0.975
17,TAGCGC,-0.652
18,CAACGG,-0.319
19,CGGCTA,0.54
20,CAGAGA,0.265

# System: IMP3 RRM1-2
# Test: as above
# Conditions: construct: RRM1-2 (1-163); SELEX round: R2
# Experimental: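 SELEX-seq with GST-tagged IMP3 RRM1-2 (Met1-Asn163) and an N40 RNA pool, round 2. 6-mer enrichment z-score normalised to GST SELEX. RNA written as DNA (T = U).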
# IMP3 RRM1-2, sequence (chain, as listed by the source): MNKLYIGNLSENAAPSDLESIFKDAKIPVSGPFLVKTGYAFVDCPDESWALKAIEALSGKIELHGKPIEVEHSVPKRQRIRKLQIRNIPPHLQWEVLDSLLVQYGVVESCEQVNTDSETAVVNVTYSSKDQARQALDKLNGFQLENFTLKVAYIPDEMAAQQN
row,Sequence,6-mer SELEX enrichment z-score
1,TCTGGA,0.011
2,CTCTGG,0.262
3,GGTCTT,0.446
4,TTCTGC,0.317
5,TAGTAT,0.146
6,GTCACA,0.756
7,GACTAA,-0.757
8,ATAATT,-0.014
9,TATCAA,1.14
10,GCGACT,-0.211
11,CTTATC,0.393
12,GTATGG,0.233
13,TAAAAA,-2.56
14,TGAGGC,0.11
15,ACGCTT,-0.035
16,CCGGGC,-0.315
17,TTTCAT,1.12
18,TCACGC,0.897
19,TTCCGT,0.171
20,GCGATC,0.223

row,Sequence,6-mer SELEX enrichment z-score
1,GATATT,0.019
2,GCCCTT,-0.063
3,GGTGCG,0.226
4,ATGACA,0.019
5,TGCGCT,0.222
6,CCTGTG,-0.332
7,TAATGA,-0.832
8,CGGGGT,0.136
9,AGTGGG,0.166
10,TATTAA,-0.202
11,ACTTCA,1.3
12,CGAATT,-0.566
13,CACATT,2.31
14,CGTCTG,0.256
15,GTCGAC,0.134
16,TCGCGT,0.34
17,TAGCGC,0.058
18,CAACGG,-0.176
19,CGGCTA,0.407
20,CAGAGA,-0.262

# Molecular target: IMP3 full-length (UniProt O00425)
# Test: as above
# Conditions: construct: FL IMP3 (1-579); SELEX round: R4
# Experimental: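 SELEX-seq with GST-tagged full-length IMP3 and an N40 RNA pool, round 4. Each 6-mer is scored as an enrichment z-score of sequence tags containing it, normalised to the matching GST SELEX round. RNA written as DNA (T = U).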
# UniProt O00425, sequence (O00425 whole entry): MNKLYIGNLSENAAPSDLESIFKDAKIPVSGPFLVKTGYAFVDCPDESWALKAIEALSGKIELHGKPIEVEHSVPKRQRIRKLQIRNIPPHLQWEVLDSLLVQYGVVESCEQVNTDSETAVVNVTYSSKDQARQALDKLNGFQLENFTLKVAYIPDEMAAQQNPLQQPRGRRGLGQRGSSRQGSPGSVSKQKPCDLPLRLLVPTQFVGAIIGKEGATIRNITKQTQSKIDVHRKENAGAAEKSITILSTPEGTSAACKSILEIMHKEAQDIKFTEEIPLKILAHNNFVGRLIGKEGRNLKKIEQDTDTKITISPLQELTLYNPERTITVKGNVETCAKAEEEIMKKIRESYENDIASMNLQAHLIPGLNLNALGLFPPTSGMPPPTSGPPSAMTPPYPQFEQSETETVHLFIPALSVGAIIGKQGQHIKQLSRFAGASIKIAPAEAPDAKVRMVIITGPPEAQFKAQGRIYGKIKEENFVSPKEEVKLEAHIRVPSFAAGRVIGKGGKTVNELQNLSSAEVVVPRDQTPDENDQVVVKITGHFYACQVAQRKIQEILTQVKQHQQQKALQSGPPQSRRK
row,Sequence,6-mer SELEX enrichment z-score
1,TCTGGA,-0.024
2,CTCTGG,0.011
3,GGTCTT,0.187
4,TTCTGC,0.101
5,TAGTAT,-0.018
6,GTCACA,1.14
7,GACTAA,-0.935
8,ATAATT,0.442
9,TATCAA,0.636
10,GCGACT,-0.13
11,CTTATC,0.065
12,GTATGG,0.262
13,TAAAAA,-2.53
14,TGAGGC,0.541
15,ACGCTT,-0.134
16,CCGGGC,0.301
17,TTTCAT,1.39
18,TCACGC,0.733
19,TTCCGT,0.256
20,GCGATC,0.386

row,Sequence,6-mer SELEX enrichment z-score
1,GATATT,0.088
2,GCCCTT,-0.237
3,GGTGCG,0.349
4,ATGACA,0.796
5,TGCGCT,0.087
6,CCTGTG,-0.534
7,TAATGA,-0.628
8,CGGGGT,0.359
9,AGTGGG,0.397
10,TATTAA,-0.031
11,ACTTCA,0.762
12,CGAATT,-0.499
13,CACATT,2.58
14,CGTCTG,0.172
15,GTCGAC,0.148
16,TCGCGT,-0.118
17,TAGCGC,-0.158
18,CAACGG,0.625
19,CGGCTA,0.888
20,CAGAGA,0.301

# System: IMP3 KH3-4
# Test: as above
# Conditions: construct: KH3-4 (377-579); SELEX round: R4
# Experimental: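 SELEX-seq with GST-tagged IMP3 KH3-4 (Pro377-Lys579) and an N40 RNA pool, round 4. 6-mer z-score of sequence-tag enrichment normalised to the corresponding GST SELEX round; RNA k-mers written as DNA (T for U).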
# IMP3 KH3-4, sequence (chain, as listed by the source): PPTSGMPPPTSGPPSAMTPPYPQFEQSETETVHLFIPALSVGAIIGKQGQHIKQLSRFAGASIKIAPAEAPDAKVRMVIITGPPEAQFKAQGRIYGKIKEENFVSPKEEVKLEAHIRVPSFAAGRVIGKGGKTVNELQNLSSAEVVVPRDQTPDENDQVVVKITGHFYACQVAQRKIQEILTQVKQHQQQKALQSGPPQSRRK
row,Sequence,6-mer SELEX enrichment z-score
1,TCTGGA,-0.084
2,CTCTGG,-0.27
3,GGTCTT,0.184
4,TTCTGC,0.025
5,TAGTAT,0.449
6,GTCACA,-0.031
7,GACTAA,0.223
8,ATAATT,2.91
9,TATCAA,0.733
10,GCGACT,-0.586
11,CTTATC,0.18
12,GTATGG,0.528
13,TAAAAA,1.09
14,TGAGGC,0.611
15,ACGCTT,-0.028
16,CCGGGC,-1.39
17,TTTCAT,1.38
18,TCACGC,-0.375
19,TTCCGT,0.263
20,GCGATC,-0.661

row,Sequence,6-mer SELEX enrichment z-score
1,GATATT,1.31
2,GCCCTT,-0.4
3,GGTGCG,0.209
4,ATGACA,1.91
5,TGCGCT,-0.014
6,CCTGTG,-0.637
7,TAATGA,1.91
8,CGGGGT,0.242
9,AGTGGG,0.549
10,TATTAA,2.42
11,ACTTCA,0.363
12,CGAATT,0.074
13,CACATT,2.05
14,CGTCTG,-0.278
15,GTCGAC,-0.512
16,TCGCGT,-0.781
17,TAGCGC,-0.511
18,CAACGG,-0.642
19,CGGCTA,0.806
20,CAGAGA,0.297

# Source: the supplement of paper PMC6531468
